Laboratory results: ChEMBL document CHEMBL4888484, “Replenishing the malaria drug discovery pipeline: Screening and hit evaluation of the MMV Hit Generation Library 1 (HGL1) against asexual blood stage Plasmodium falciparum ,using a nano luciferase reporter read-out” (2022)
In all, about 150,000 compounds went through this assay and about 540 (0.36%) showed an effect of 50% or more. The list shows a part of the results.

What follows are molecules tested on Plasmodium falciparum (assay: Primary screen in NF54 nanoGlo assay, in single point, at 2uM, 72h; a lower Z score goes with more inhibition). Settings: timepoint 72 hour.
Format: functional, Erythrocyte

Row | SMILES | % Inhibition [%] | Z score
1 | CCO[C@@H](CC)CNC(=O)N(C)CCn1ccnc1 | -8 | 1.19
2 | Cc1csc(NC(=O)[C@H]2CCCN(S(=O)(=O)c3c(C)[nH]c(=O)[nH]c3=O)C2)n1 | -1 | 0.13
3 | NC(=O)c1cn(CC(=O)N2C[C@H]3C[C@H](O)[C@H](O)C[C@H]3C2)c2ccccc12 | -16 | 1.51
4 | COc1ccc(-c2c[nH]c(C(=O)N3CCCCC3)c2)c(OC)n1 | -23 | 3.49
5 | Cc1cc(C)nc(Cn2ccnc2-c2cc3c(cc2C)OCCO3)n1 | 8 | -1.35
6 | CCCNS(=O)(=O)c1cc(-c2c(CC)noc2NC(C)=O)ccc1OC | -5 | 0.96
7 | O=C(N[C@H]1CCOC1)c1cccc(S(=O)(=O)NCC(=O)N2CCCC2)c1 | -6 | 1.14
8 | Fc1ccccc1CN1CC[C@@H]2CN(Cc3ccc4[nH]ccc4c3)C[C@@H]21 | 6 | -1.03
9 | O=C(Nc1ccccc1)C(=O)N1C[C@@H](F)C[C@H]1CNC(=O)c1ccncc1 | -11 | 1.3
10 | Cc1cc(C)cc(-n2nc(C(=O)NCc3cccnc3)c(=O)n(Cc3ccc(F)cc3)c2=O)c1 | -2 | 0.21
11 | CC(C)OCCS(=O)(=O)N1CCCc2sccc2C1 | -14 | 1.27
12 | O=C(NC1CCCC1)c1cccnc1Oc1cccc(NS(=O)(=O)c2ccccc2)c1 | -11 | 1.63
13 | CCc1csc(CC2CCN(Cc3cc(C(=O)O)ccc3Cl)CC2)n1 | -9 | 1.42
14 | COc1cc(=O)n2c(c1C(=O)N[C@H]1CCCc3ccccc31)CCC2 | -9 | 1.05
15 | COc1ccc(NC(=O)c2cnc(N3CCN(C)CC3)nc2C)cc1OC | -5 | 0.7
16 | COCc1nc(CN2CCO[C@H](c3nc(C(C)C)n[nH]3)C2)cs1 | 29 | -3.85
17 | CCCc1ncncc1-c1nc(COc2cccc(F)c2)nn1CC(=O)O | -14 | 2.51
18 | Cc1ccc(CN(C)C(=O)Nc2ccc3[nH]c(=O)[nH]c3c2)nc1 | -6 | 0.53
19 | Cn1c(CNc2ccc(C(=O)N[C@@]3(C)CCS(=O)(=O)C3)cc2)nc2ccccc21 | -7 | 1.08
20 | CCC(=O)N(CC(=O)N1CCc2sccc2[C@@H]1COc1cccc(F)c1)CC(C)C | -9 | 0.79
21 | CN(C)c1ncc2c(n1)CC[C@H](NC(=O)COc1ccccc1F)C2 | 9 | -1.17

Row | SMILES | % Inhibition [%] | Z score
22 | CC(C)[C@@H](C(N)=O)n1cc(-c2ccc(-c3ccccc3C#N)o2)nn1 | -8 | 1.56
23 | CCNC(=O)C1CC(c2cccc(C)c2)CN(Cc2ccccc2F)C1 (stereo not drawn) | -2 | 0.27
24 | CCC(=O)N(Cc1ccc(F)cc1)c1ccc(CC(=O)NC(C)C)cc1 | 1 | -0.11
25 | CCN(Cc1csc(C)n1)S(C)(=O)=O | 4 | -0.59
26 | Cc1ccc2c(c1)C[C@@H](C(=O)N1CCN(c3ccnc(C)c3)CC1)N2 | -11 | 1.2
27 | COc1ccc(C2c3[nH]c4ccccc4c3C[C@H]3C(=O)N(Cc4ccccc4)CC(=O)N23)cc1 (stereo partly drawn) | 2 | -0.25
28 | Cc1nc(-c2ccc(C)c(S(=O)(=O)N3CCC[C@H](C(=O)Nc4ccc(C)c(C)c4)C3)c2)no1 | -9 | 1.23
29 | O=C(NCC1CCCCC1O)C1COCCN1 (stereo not drawn) | -8 | 1.09
30 | CC[C@@H](C#N)NC(=O)c1ccc(O)cc1F | -7 | 1.39
31 | COCCn1cc(CC(=O)N2CCCC2)c2cccnc21 | -14 | 1.68
32 | Cc1nc(O)c(Cl)c(-c2ccc(C(=O)NCCCN3CCCC3)cc2)n1 | -5 | 0.98
33 | Cc1nc(C)c(C(=O)NC[C@H]2CCCN(c3nccs3)C2)s1 | 27 | -3.39
34 | COCC[C@@H](COC)NC(=O)c1cnc2c(c1)NC(=O)CO2 | -18 | 2.74
35 | CCn1cc(S(=O)(=O)N2CCc3[nH]c(-c4ccccc4)nc3C2)c(C)n1 | 1 | -0.05
36 | Cn1nc(-c2cncnc2)nc1N1CCCCC1 | -11 | 1.44
37 | CC(=O)c1ccc(NC(=O)c2ccc(-n3nc(OCc4cccc(F)c4)ccc3=O)cc2)cc1 | -21 | 3.67
38 | CNS(=O)(=O)CCNC(=O)c1csc(C2CC2)n1 | -8 | 0.97
39 | CO[C@@H](C)CS(=O)(=O)N(C)c1nc2cc(Cl)ccc2s1 | -3 | 0.52
40 | O=C(CC[C@H]1CCCN(C(=O)C2CCCCC2)C1)N1CCN(c2ccccn2)CC1 | -15 | 1.55
41 | CN1C[C@@H]2CN(Cc3ccnn3-c3ccc(F)cc3)C[C@@H]2C1 | -6 | 0.86
42 | C[C@H](NC(=O)c1[nH]nc2c1CCCC2)c1ncon1 | 1 | -0.12

Row | SMILES | % Inhibition [%] | Z score
43 | OCC#Cc1csc(CN2CCC(c3nnc[nH]3)CC2)c1 | -11 | 1.34
44 | CCOc1ccc(Br)cc1NCC(=O)N(C)CCC#N | -19 | 1.68
45 | CC1CCC(O)C(C2CCCN2C(=O)NCc2cccn2C)C1 (stereo not drawn) | -3 | 0.54
46 | CC1CC1c1ccc(CNCC2(CO)CCOCC2)o1 (stereo not drawn) | -7 | 1.28
47 | COc1ccc(CC(=O)NCCc2cccc3cccnc23)cc1 | -14 | 1.59
48 | Cc1csc(C2CN(C(=O)C3CCc4nncn4C3)CCO2)n1 (stereo not drawn) | -7 | 0.86
49 | N#CC1(C(=O)N2CC(c3cccc(C(F)(F)F)c3)C2)CCOCC1 | 1 | -0.13
50 | CCOC(=O)C[C@H](N)c1cccc(C)c1C | 10 | -1.51
51 | Cc1cc(Cc2ccc(S(=O)(=O)NC3CCCC(C)C3C)cc2)c(=O)[nH]n1 (stereo not drawn) | -6 | 0.64
52 | Cc1cc(N2CCC(c3ccn[nH]3)CC2)c(C#N)c(C)n1 | 30 | -3.42
53 | O=C(CCc1c[nH]c2ccccc12)Nc1nc([C@@H]2CCCO2)n[nH]1 | -8 | 1.1
54 | CC[C@H](C)N(CC(=O)OC)S(=O)(=O)C1CC1 | -6 | 0.94
55 | O=c1oc(CN2CCOC[C@H]2C2CCC2)c(-c2ccccc2)o1 | 2 | -0.28
56 | C=CCNC(=O)c1csc(-c2ccc(OCc3ccccc3Cl)cc2Cl)n1 | -2 | 0.22
57 | COCC[C@H]1CN(Cc2cnc(C)cn2)CCO1 | -2 | 0.45
58 | COC(=O)[C@@H]1C[C@@H](O)CN1Cc1cnn(-c2ccccc2)c1 | -4 | 0.7
59 | Cc1ccc(C)c(Cn2ccn3nc(-c4ccc5c(c4)OCO5)cc3c2=O)c1 | -17 | 2.12
60 | COc1cccc([C@H]2CCN(C(=O)CCC(=O)c3ccccc3)C2)c1OC | -7 | 1.19
61 | COCCn1ccnc1C1CCN(S(=O)(=O)c2sccc2C)CC1 | 2 | -0.28
62 | CC(C)(C)C(=O)N1CC[C@H](S(C)(=O)=O)C1 | -10 | 1.75
63 | c1ccc(-c2noc(C3CCN(c4ccc5nncn5n4)CC3)n2)nc1 | -18 | 2.08

Row | SMILES | % Inhibition [%] | Z score
64 | COc1ccc(NC(=O)c2nn(-c3ccccc3)c3ccccc3c2=O)cc1Cl | -9 | 1.18
65 | Cc1cnc2c(Cl)c(C(=O)N3CCC[C@@](O)(CN(C)C)C3)nn2c1 | -8 | 1.04
66 | CN(Cc1ccns1)c1cc(C2CC2)nc(C2CC2)n1 | -4 | 0.39
67 | O=C(Nc1cc(CCc2ccccc2)n[nH]1)[C@@H]1CCCO1 | -1 | 0.14
68 | COc1cc(OC)nc(-c2ccc(C(=O)N3CCC[C@H](C#N)C3)cc2)n1 | 7 | -1.36
69 | O=C(Nc1ccc2c(c1)OCCCO2)C1CC2CCCCC2N1S(=O)(=O)c1ccccc1 (stereo not drawn) | -9 | 1.23
70 | CC(C)c1nc([C@H](CO)NC(=O)c2ccn(C)n2)cs1 | 6 | -0.84
71 | COc1ccccc1NC(=O)Cn1c(C)nc2c(-c3ccncc3)nsc2c1=O | -2 | 0.31
72 | CNc1ccc(S(=O)(=O)NC)cc1N | -9 | 1.65
73 | O=C(c1cccs1)N(CCN1CCOCC1)c1nc2ccc(F)cc2s1 | -9 | 1.2
74 | COc1ncnc(OC)c1C(=O)N1CCN(c2cccc(C)c2C)CC1 | 0 | 0
75 | CCCS(=O)(=O)Nc1ncc(Cc2ccc(F)c(C#N)c2)s1 | -17 | 2.8
76 | COc1cc2c(cc1OC)C(c1ccccc1)N(CN1C(=O)NC3(CCCCC3C)C1=O)CC2 (stereo not drawn) | -7 | 1.37
77 | COc1ccc(-c2cc(C(F)(F)F)c3c(C)nn(-c4nc5ccccc5s4)c3n2)cc1OC | 6 | -0.73
78 | COc1cnc(C(C)(C)NC(=O)CC(C2CCC2)C2CCC2)[nH]c1=O | -13 | 1.45
79 | O=C(NC1CCCC2OCCC12)N(Cc1ccco1)CC1CCCO1 (stereo not drawn) | -9 | 1.28
80 | CCc1ncc(CN2CCO[C@@H](COCC3CC3)C2)cn1 | -17 | 3.22
81 | O=C(NC[C@H]1CCc2ccccc2N1)Nc1cccnc1 | -5 | 0.73
82 | COC(=O)c1cc(CN2CCOc3cc(N(C)C)ccc32)c[nH]1 | 3 | -0.49
83 | O=C(NCC(=O)N1CCCC1)c1cccc(-c2cn[nH]c2)c1 | -11 | 1.83
84 | COCc1nc(CN(Cc2ccc3c(c2)OCO3)C2(C)CCCC2)cs1 | -1 | 0.1
